For test [1], the target named is human PD-1 on cells (HEK-PD-1 reporter cells; activated PBMC) (human). As to the kind of experiment: cell-based or functional assay.
Test [2] deals with T1, human PD-1 (human).
T1 construct: also called hPD-1
In words: PD-L1-Fc format, method not stated.

The target in test [3] is T2, mouse PD-1 (mouse).
T2 construct: also called mPD-1
T2 sequence (looked up): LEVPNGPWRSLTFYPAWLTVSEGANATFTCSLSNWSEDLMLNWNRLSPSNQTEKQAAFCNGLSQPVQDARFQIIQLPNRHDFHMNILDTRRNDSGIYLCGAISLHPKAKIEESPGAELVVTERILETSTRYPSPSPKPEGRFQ
In words: PD-L1-Fc format, method not stated.

B1: PD-L1(wt)-Fc/IL-12(E59A/F60A) (IL-12 at C-terminus of Fc) (Fc fusion)
chain 1: [omitted - about 200 residues][omitted - about 250 residues]
chain 2: [omitted - about 200 residues]SGDKTHTCPPCPAPEDEGGPSVFLFPPKPKDTLMISRTPEVTCVVVDVSHEDPEVKFNWYVDGVEVHNAKTKPREEQYNSTYRVVSVLTVLHQDWLNGKEYKCKVSNKALPAPIEKTISKAKGQPREPQVYVYPPSREEMTKNQVSLTCLVKGFYPSDIAVEWESNGQPENNYKTTPPVLDEDGSFALVSKLTVDKSRWQQGNVFSCSVMHEALHNHYTQKSLSLSPGKGGGGSGGGGSGGGGSIWELKKDVYVVELDWYPDAPGEMVVLTCDTPEEDGITWTLDQSSEVLGSGKTLTIQVKAAGDAGQYTCHKGGEVLSHSLLLLHKKEDGIWSTDILKDQKEPKNKTFLRCEAKNYSGRFTCWWLTTISTDLTFSVKSSRGSSDPQGVTCGAATLSAERVRGDNKEYEYSVECQEDSACPAAEESLPIEVMVDAVHKLKYENYTSSFFIRDIIKPDPPKNLQLKPLKNSRQVEVSWEYPDTWSTPHSYFSLTFCVQVQGKSKREKKDRVFTDKTSATVICRKNASISVRAQDRYYSSSWSEWASVPCSGGGGSGGGGSGGGGSGGGGSGRNLPVATPDPGMFPCLHHSQNLLRAVSNMLQKARQTLEFYPCTSEEIDHEDITKDKTSTVEACLPLELTKNESCLNSRETSFITNGSCLASRKTSFMMALCLSSIYEDLKMYQVEFKTMNAKLLMDPKRQIFLDQNMLAVIDELMQALNFNSETVPQKSSLEEPDFYKTKIKLCILLHAFRIRAVTIDRVMSYLNAS
For B1, the “Biological activity of IL-12, HEK-PD-1-IL-12 reporter assay, % of rIL-12” value (“Biological activity … % of rIL-12” for short) in test [1] stood at 200%.

B2: IL-12(E59A/F60A)/PD-L1(wt)-Fc (IL-12 at hinge), Table 2 (Fc fusion)
chain 1: [omitted - about 200 residues][omitted - about 250 residues]
chain 2: [omitted - about 200 residues]SGIWELKKDVYVVELDWYPDAPGEMVVLTCDTPEEDGITWTLDQSSEVLGSGKTLTIQVKAAGDAGQYTCHKGGEVLSHSLLLLHKKEDGIWSTDILKDQKEPKNKTFLRCEAKNYSGRFTCWWLTTISTDLTFSVKSSRGSSDPQGVTCGAATLSAERVRGDNKEYEYSVECQEDSACPAAEESLPIEVMVDAVHKLKYENYTSSFFIRDIIKPDPPKNLQLKPLKNSRQVEVSWEYPDTWSTPHSYFSLTFCVQVQGKSKREKKDRVFTDKTSATVICRKNASISVRAQDRYYSSSWSEWASVPCSGGGGSGGGGSGGGGSGGGGSGRNLPVATPDPGMFPCLHHSQNLLRAVSNMLQKARQTLEFYPCTSEEIDHEDITKDKTSTVEACLPLELTKNESCLNSRETSFITNGSCLASRKTSFMMALCLSSIYEDLKMYQVEFKTMNAKLLMDPKRQIFLDQNMLAVIDELMQALNFNSETVPQKSSLEEPDFYKTKIKLCILLHAFRIRAVTIDRVMSYLNASDKTHTCPPCPAPEDEGGPSVFLFPPKPKDTLMISRTPEVTCVVVDVSHEDPEVKFNWYVDGVEVHNAKTKPREEQYNSTYRVVSVLTVLHQDWLNGKEYKCKVSNKALPAPIEKTISKAKGQPREPQVYVYPPSREEMTKNQVSLTCLVKGFYPSDIAVEWESNGQPENNYKTTPPVLDEDGSFALVSKLTVDKSRWQQGNVFSCSVMHEALHNHYTQKSLSLSPGK
B2: the “Biological activity … % of rIL-12” value in test [1] is 8.2%.

B3: IL-12(F60A)/PD-L1(wt)-Fc (IL-12 at hinge) (Fc fusion)
chain 1: [omitted - about 200 residues][omitted - about 250 residues]
chain 2: [omitted - about 200 residues]SGIWELKKDVYVVELDWYPDAPGEMVVLTCDTPEEDGITWTLDQSSEVLGSGKTLTIQVKEAGDAGQYTCHKGGEVLSHSLLLLHKKEDGIWSTDILKDQKEPKNKTFLRCEAKNYSGRFTCWWLTTISTDLTFSVKSSRGSSDPQGVTCGAATLSAERVRGDNKEYEYSVECQEDSACPAAEESLPIEVMVDAVHKLKYENYTSSFFIRDIIKPDPPKNLQLKPLKNSRQVEVSWEYPDTWSTPHSYFSLTFCVQVQGKSKREKKDRVFTDKTSATVICRKNASISVRAQDRYYSSSWSEWASVPCSGGGGSGGGGSGGGGSGGGGSGRNLPVATPDPGMFPCLHHSQNLLRAVSNMLQKARQTLEFYPCTSEEIDHEDITKDKTSTVEACLPLELTKNESCLNSRETSFITNGSCLASRKTSFMMALCLSSIYEDLKMYQVEFKTMNAKLLMDPKRQIFLDQNMLAVIDELMQALNFNSETVPQKSSLEEPDFYKTKIKLCILLHAFRIRAVTIDRVMSYLNASDKTHTCPPCPAPEDEGGPSVFLFPPKPKDTLMISRTPEVTCVVVDVSHEDPEVKFNWYVDGVEVHNAKTKPREEQYNSTYRVVSVLTVLHQDWLNGKEYKCKVSNKALPAPIEKTISKAKGQPREPQVYVYPPSREEMTKNQVSLTCLVKGFYPSDIAVEWESNGQPENNYKTTPPVLDEDGSFALVSKLTVDKSRWQQGNVFSCSVMHEALHNHYTQKSLSLSPGK
Turning to B3, in test [1], the “Biological activity … % of rIL-12” value worked out at 221%.

B4: PD-L1(wt)-Fc/IL-12(F60A) (IL-12 at C-terminus of Fc) (Fc fusion)
chain 1: [omitted - about 200 residues][omitted - about 250 residues]
chain 2: [omitted - about 200 residues]SGDKTHTCPPCPAPEDEGGPSVFLFPPKPKDTLMISRTPEVTCVVVDVSHEDPEVKFNWYVDGVEVHNAKTKPREEQYNSTYRVVSVLTVLHQDWLNGKEYKCKVSNKALPAPIEKTISKAKGQPREPQVYVYPPSREEMTKNQVSLTCLVKGFYPSDIAVEWESNGQPENNYKTTPPVLDEDGSFALVSKLTVDKSRWQQGNVFSCSVMHEALHNHYTQKSLSLSPGKGGGGSGGGGSGGGGSIWELKKDVYVVELDWYPDAPGEMVVLTCDTPEEDGITWTLDQSSEVLGSGKTLTIQVKEAGDAGQYTCHKGGEVLSHSLLLLHKKEDGIWSTDILKDQKEPKNKTFLRCEAKNYSGRFTCWWLTTISTDLTFSVKSSRGSSDPQGVTCGAATLSAERVRGDNKEYEYSVECQEDSACPAAEESLPIEVMVDAVHKLKYENYTSSFFIRDIIKPDPPKNLQLKPLKNSRQVEVSWEYPDTWSTPHSYFSLTFCVQVQGKSKREKKDRVFTDKTSATVICRKNASISVRAQDRYYSSSWSEWASVPCSGGGGSGGGGSGGGGSGGGGSGRNLPVATPDPGMFPCLHHSQNLLRAVSNMLQKARQTLEFYPCTSEEIDHEDITKDKTSTVEACLPLELTKNESCLNSRETSFITNGSCLASRKTSFMMALCLSSIYEDLKMYQVEFKTMNAKLLMDPKRQIFLDQNMLAVIDELMQALNFNSETVPQKSSLEEPDFYKTKIKLCILLHAFRIRAVTIDRVMSYLNAS
For B4, the “Biological activity … % of rIL-12” value in test [1] was 228%.

B5: PD-L1(wt)-Fc (heterodimer) (Fc fusion)
chain 1: not shown
chain 2: not shown
As a reminder, the Kd is the free concentration of one partner at which half of the binding sites on the other are occupied at equilibrium, for simple one-to-one binding. Lower therefore signals a tighter complex. Regarding B5, the Kd in test [2] was determined as 7.5 µM; in test [3], 5.1 µM.

These data come from patent US20240392004A1 (IMMUNOWAKE, published 2024).
